# Source: PubChem BioAssay (NCI)
# Some compounds were tested as several samples or in several runs, with calls that do not always agree.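 Negative percent growth values reflect cell death: -40 means 40% of the cells present at the start died, and -100 means all died.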 A number of entries come with more than one value. They are shown here; other results are not. How the source made its calls: active means growth percent below 10; inactive means the rest. There may be further records. This drug was run again and again over the years, at its own concentration, as given; one value stands for one run. Marks such as (2×) give the number of equal values in this list.
# Assays:
# A549/ATCC NSCLC = experiment: NCI-60 one-dose screen, 48 h (100 = growth as untreated, 0 = no growth, -100 = all killed); conditions: 2.5 mM
# 786-0 renal = experiment: as above; conditions: 2.5 mM
smiles,measurement,setting,value
O=c1[nH]cc(F)c(=O)[nH]1,growth,A549/ATCC NSCLC; runs of 1996,"inactive: 26.7, 62.7, 21, 11.8, 14.2, 28.1, 13.3, 17.5, 21.8, 14.9, 10.8, 15.4, 14.7, 15.8 (2×), 16.2, 17.8, 18.5, 10.2 (2×), 12.5, 36, 13.6, 26% and active: 4.36 (2×), 3.78, 4.45, -5.79, 3.51, 0.127, 0.872, 6.16, -43.6, 1.87, 7.6, 7.43, 5.64, 7.23, 7.56 (2×), -1.45, 5.09, 9.73, 9.23, -42.5, 4.71, -3.75, 8.16, 8.04, -5.57, -20.7%"
same,growth,A549/ATCC NSCLC; runs of 1997,"active: 9.78, 2.89, -11.5, -19.6, 7.77, 8.73, 8.66, 9.2, 6.04, -1.83, 3.38, 3.88, 7.65, 5.67, -18.3, 9.34, 6.83, -3.95, -32.8% and inactive: 10.7, 18.2, 18.1, 14.3 (2×), 10.8, 16.4 (2×), 19.8, 12.8, 69.5, 15.3, 19.3, 15.5, 11.2, 17.5, 10.9, 12.1, 14.1, 15.9, 15.4, 36.5, 12.2, 15.1, 15.2, 10.6, 11.4%"
same,growth,A549/ATCC NSCLC; runs of 1998,"active: -51.4, 6.99, 7.66, 2.22, 3.88, 2.7, -5.3, -54.3, -16.2, 4.92, 7.5, 2.46, 2.89, -26.3, 9.16, 0.0377, 7.99, 8.23, -10.4% and inactive: 17.5, 14.6, 14.7, 13, 13.3 (2×), 18.8%"
same,growth,A549/ATCC NSCLC; runs of 1999,"inactive: 17.5, 20.3, 14.3, 37, 15.9, 11.7% and active: -100 (2×), -55.6, -83.2, -56.5, -77, -13.5, 0.464, -73.7, -87.1, -60.1, -61.7%"
same,growth,A549/ATCC NSCLC; runs of 2000,"active: -82.6, -25.3, -46.8, -73%"
same,growth,786-0 renal; runs of 1991,"active: -11.8, -0.922, 4.11, 6.99, 2.47, -12.5, -32.1, 4.31, -75.5, -20.2, 5.34, -74.1, -23.2, -11.1, 8.4, 3.7, -28.8% and inactive: 17%, 11.4%"
same,growth,786-0 renal; runs of 1992,"active: 0.67, 2.97, 0.814, -7.21, -10.5, 5.8, 1.63, -29, 6.42, -49, -34.7, -31.1, -42.1, -10.2, 8.55, -28, 3.49, -42.9, -11.6, -56.2, -34.8, 0.372, -22.6, 3.57, -8.33, -70.6, -76.8, -28.4, -48.8, -21.8, -32.8, -56.9, 3.87, -12.1, 0.743, -33.2, -44.2, 8.88, 0.926, 7.42, -63.3, -49.1, -9.62, 8.19, 3.42, 6.79, -28.7, -12.9, -53.8, -41, 2.48, 1.3, -14, 7.62, 9.03, 1.79, -51.9, 0.398, -66.7, -12.8, -50.6, -52.8, -8.65, 6.29, 7.68, 4.82, 0.146, -13.4, 0.97, -4.46, -14.3, -69.7, 1.51, -17.2, -32.1, 9.32, -5.35, -13.9, -73.8 (2×), -40.9, 1.55, -72, -34.1, -24.8, -23.9, -23.4, -7.46, -1.3, -18.6, -46.2, -15.6, -36.6, -27.3, -16, -9.17% and inactive: 14.6, 72.3, 12.4, 17.7, 12.3, 19.5, 18.9, 101, 40.1, 11.2, 19.3, 11.5, 13.9, 11.8, 16.4, 29.2, 48.9, 11.9, 54.8, 13.6%"
same,growth,786-0 renal; runs of 1993,"inactive: 13.6, 25.5, 33.3, 21.7, 21.5, 35.7, 13.2, 16.4, 22.1, 16.5, 12.7, 13.3, 11.6, 13.1, 11.9, 24.8, 92.2, 16.3, 78.3, 12.5, 24, 16% and active: 0.736, -3.64, -40.7, -15.2, -28.4, -9.96, -22.8, 5.6, 4.43, -38.7, -72.2, -12.9, 5.83, -9.73, 0.994, -25.7, -3.28, -63.9, -21, 9.46, 9.34, -13.8, 0.44, -17.7%"
same,growth,786-0 renal; runs of 1994,"inactive: 12.3, 22.1, 12.2, 11.5, 16.3, 10, 14.9, 20.3, 33, 11.7, 11.4, 22, 16.4% and active: -69.3, -46.7, 4.45, -49.8, -18.9, -19, -20.9, -17.1, -52.9, 0.905, 2.3, -22.9, 3.63, 4.5, -78.7, -12.7, -47.6, 5.59, -12, -0.532, -34.7, 4.43%"
same,growth,786-0 renal; runs of 1995,"inactive: 24.9, 13.8, 13.3, 10.4 (2×), 13.4, 20, 17.4, 13.1, 28.1, 16.1, 24.5, 18.5 (2×), 15.3, 23, 12.5, 28.8, 46.5, 21, 18.7% and active: -24.3, -40.1, -17.4, 8.79, -17.3, -22.1, 5.71, -35.9, 8.04, 8.45, 8.38, 6.43, -5.32, -34.2, 9.68, -50.8, 6.24, 4.7%"
same,growth,786-0 renal; runs of 1996,"active: 9.56, -44.6, 6.08, 7.68, -7.04, 5.56, 4.09, 2.01, 9.6, 4.36, -14.4, -15, 3.4, -38.1, -25.7, 2.86, 9.61, 4.99, 5.87, -32.6, 2.88, 4.94, -13.7, 2.25, -7.64% and inactive: 12.7, 12, 15.6, 10.2, 11.6 (2×), 20.2 (2×), 16.8, 15.4 (3×), 11.7, 17.9, 19.9, 13.9, 20.5 (2×), 18, 25.3, 10.5, 18.7, 24.4, 15.5, 14.7, 12.1, 16.2, 23.9, 26.6, 15.2, 24.7, 19.2, 20.6%"
same,growth,786-0 renal; runs of 1997,"active: -14.8, 5.75, 1.92, 5.02, -8.09, 0.155, -17.8, 9.03, -30.7, 1.04, -15.2, 8.04, -34.2, 2.98, -31.7, -7.45, 4, -59.5, 0.689, 6.27, 8.65, -32.8, 5.34, 8.99, 7.86, -7.41, 0.64, -15.5, -56.6% and inactive: 20.1, 19.2, 21.2, 12.7, 17, 15.6, 21.8, 10.3, 32.4, 11.5, 83, 23.5, 12, 13.8%"
same,growth,786-0 renal; runs of 1998,"active: -12.6, 5.31, 2.66, -30.2, -18.4, -7.66, -22.3, -19.2, 1.97, 6.34, 3.45% and inactive: 11.2, 26.4, 27.1, 13.7, 22, 16.2, 18.5, 22.6, 19.9, 14.9, 39%"
same,growth,786-0 renal; runs of 1999,"active: -29.4, -12.9, 1.09, 3.04, 2.75, 3.27, 4.01, 2.15, 1.51, 2.87, 0.429, 1.92% and inactive: 24.5, 12.1, 17.7, 22.7%"
same,growth,786-0 renal; runs of 2000,"active: -67.3, 2.04, 3.19, 1.7%"
